According to the supplement of paper PMC3334620:
Over roughly 33,000 sequences, “E-score (-0.5 to 0.5)” has its median near -0.053; the highest 2% begin near 0.37. The list shows a part of the results.

Target: Hap1 (UniProt P0CE41)
Test: PBM E-score (8-mer binding enrichment) (E-score (-0.5 to 0.5)); higher = stronger / more preferred TF binding; most listed sequences are background and not binding sites
Settings: protein concentration: 200 nM; construct: GST-DNA-binding domain
Protocol: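 Universal 'all 10-mer' protein binding microarrays (Agilent AMADID 015681) probed with GST-tagged S. cerevisiae TFs (full-length or DBD) made by in vitro transcription/translation (PURExpress), about 100-200 nM. Bound TF was detected with fluorescent anti-GST. Each ungapped 8-mer (which stands for itself and its reverse complement) is scored by the PBM enrichment score (E-score), a modified Wilcoxon-Mann-Whitney statistic from -0.5 to +0.5, computed with the Universal PBM Analysis Suite. Scale: above 0.35 generally sequence-specific binding.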

UniProt P0CE41, sequence (P0CE41 whole entry): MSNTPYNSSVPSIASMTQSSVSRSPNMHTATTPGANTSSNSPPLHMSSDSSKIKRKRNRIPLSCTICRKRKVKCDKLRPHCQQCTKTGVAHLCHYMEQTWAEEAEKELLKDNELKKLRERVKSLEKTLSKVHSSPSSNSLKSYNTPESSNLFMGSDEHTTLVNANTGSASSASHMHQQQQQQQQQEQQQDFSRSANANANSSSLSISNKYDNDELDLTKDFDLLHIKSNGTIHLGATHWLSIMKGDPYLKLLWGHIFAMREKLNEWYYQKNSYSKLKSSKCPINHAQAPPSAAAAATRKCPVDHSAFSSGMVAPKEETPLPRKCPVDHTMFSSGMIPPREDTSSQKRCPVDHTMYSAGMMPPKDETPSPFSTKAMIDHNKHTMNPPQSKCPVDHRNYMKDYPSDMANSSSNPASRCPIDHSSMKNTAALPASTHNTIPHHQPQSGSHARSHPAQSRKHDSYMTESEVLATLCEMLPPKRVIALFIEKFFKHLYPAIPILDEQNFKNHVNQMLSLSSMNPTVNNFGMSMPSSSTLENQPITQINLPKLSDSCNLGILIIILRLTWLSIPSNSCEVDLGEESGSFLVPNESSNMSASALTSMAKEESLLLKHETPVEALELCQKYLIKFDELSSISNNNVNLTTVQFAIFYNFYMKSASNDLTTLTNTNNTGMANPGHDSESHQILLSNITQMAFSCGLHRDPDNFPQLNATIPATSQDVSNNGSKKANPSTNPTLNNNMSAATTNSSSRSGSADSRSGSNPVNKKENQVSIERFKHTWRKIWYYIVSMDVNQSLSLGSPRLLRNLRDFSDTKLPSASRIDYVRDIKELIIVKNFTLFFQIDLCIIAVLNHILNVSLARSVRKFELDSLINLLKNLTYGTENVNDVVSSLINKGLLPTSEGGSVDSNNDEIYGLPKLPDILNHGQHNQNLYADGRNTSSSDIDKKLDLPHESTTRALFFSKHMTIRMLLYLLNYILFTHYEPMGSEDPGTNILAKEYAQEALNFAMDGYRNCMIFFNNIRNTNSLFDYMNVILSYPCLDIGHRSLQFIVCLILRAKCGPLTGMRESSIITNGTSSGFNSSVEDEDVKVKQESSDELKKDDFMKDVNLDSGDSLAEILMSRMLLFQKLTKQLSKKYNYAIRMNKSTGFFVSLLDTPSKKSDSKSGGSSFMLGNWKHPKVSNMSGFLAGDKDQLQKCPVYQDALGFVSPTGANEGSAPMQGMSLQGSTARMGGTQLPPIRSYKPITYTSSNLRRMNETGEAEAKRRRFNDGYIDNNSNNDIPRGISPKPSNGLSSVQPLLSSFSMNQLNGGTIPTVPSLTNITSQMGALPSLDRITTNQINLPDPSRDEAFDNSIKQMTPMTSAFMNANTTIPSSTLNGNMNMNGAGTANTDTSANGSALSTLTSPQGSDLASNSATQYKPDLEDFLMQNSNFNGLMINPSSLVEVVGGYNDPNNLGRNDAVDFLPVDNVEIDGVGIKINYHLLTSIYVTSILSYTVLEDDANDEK

| Sequence | PBM E-score |
| --- | --- |
| GTCCCGAA | 0.111 |
| CAGCATGA | -0.201 |
| AAATATCT | 0.0958 |
| ACCGGGTA | 0.287 |
| CGATGTCA | -0.0608 |
| AACGCTAG | -0.162 |
| CCATCATC | -0.16 |
| ACGTCTCT | -0.0771 |
| AGAACGAG | -0.122 |
| TCCAGGCA | -0.132 |
| CTTACGGC | 0.333 |
| AAACCGGA | 0.328 |
| CCGTCCTC | 0.134 |
| AACCTTTA | -0.0305 |
| GCTTTGCA | -0.136 |
| CTGGCGCA | -0.28 |
| AACACCCC | -0.00343 |
| CCAAGTAA | -0.178 |
| GTGCCCAC | -0.263 |
| CTTTTAGA | -0.0131 |
| AGAGTTAT | -0.126 |
| GACGAGTA | -0.0242 |
| GACACAGC | -0.146 |
| CCCCCGCC | 0.158 |
| ACTTACGA | -0.0152 |

| Sequence | PBM E-score |
| --- | --- |
| AGGGTGGA | -0.0754 |
| ATAGTATG | 0.0539 |
| ATAACCTC | -0.0153 |
| CAGTGTAG | -0.22 |
| CACCCGCC | 0.257 |
| GGAACTAC | 0.133 |
| CGGGAAGC | 0.0962 |
| GAAAAACA | -0.109 |
| CCCTGGCA | 0.0908 |
| TAGGAGGA | -0.249 |
| ACCTCAAA | -0.0183 |
| GAAGCTCC | 0.329 |
| CCCAAGCA | -0.18 |
| CATACAGC | -0.0521 |
| GCTCCAGC | -0.0411 |
| GCCACGGC | 0.073 |
| AGTCGTAA | 0.00615 |
| GGGAGCAA | 0.0117 |
| GGCACGGA | 0.175 |
| CCTCTCTA | -0.251 |
| CTCTTGTA | -0.0937 |
| AAAACCAC | -0.0546 |
| GCGCGTGA | 0.114 |
| GGGTACAC | -0.0172 |
| CTCCATAC | -0.0699 |

| Sequence | PBM E-score |
| --- | --- |
| ACACTAGG | -0.195 |
| GACGCTTA | -0.242 |
| CACAAAGA | -0.169 |
| GGCTTCGA | -0.0926 |
| GATTCCAC | 0.119 |
| AGGACCAC | -0.168 |
| ACGTAGAT | -0.0926 |
| GTCCTTTA | 0.146 |
| ACCTCGTC | 0.106 |
| GGCGGGAC | 0.0644 |
| CGCGCCAG | 0.0862 |
| GTGCCTCA | -0.158 |
| GGTGGAAA | 0.127 |
| GGATAATA | 0.197 |
| AAAGATTC | -0.184 |
| AAGGTGAC | -0.168 |
| GTCGCAAC | -0.0641 |
| CTAACATA | -0.109 |
| CACGCGGC | 0.0696 |
| ATGAGCTC | -0.0597 |
| CAATACTC | -0.0914 |
| CGATGGGC | -0.0123 |
| CTCTGTTC | -0.204 |
| CTAGAAAA | -0.0898 |
| GGTAAAAA | 0.0109 |

| Sequence | PBM E-score |
| --- | --- |
| GCTAAAGA | 0.0961 |
| TATCCAAA | -0.218 |
| TCTGATAA | -0.18 |
| AAGGACAC | -0.0581 |
| ACTGTCGC | 0.019 |
| ACGGCTAT | 0.106 |
| AAAATTGG | -0.122 |
| GGGCTCGA | -0.197 |
| CCGTTGTC | 0.272 |
| GAATTAAC | 0.0565 |
| CAGTAGAC | -0.143 |
| GGTGGTTA | 0.0739 |
| CTGGTTGC | 0.11 |
| AACACAGA | -0.116 |
| CACGGCGC | 0.141 |
| CATCCTAC | -0.129 |
| AGCCACTG | -0.0795 |
| GAATCTAA | 0.0164 |
| AGCTGGCC | 0.0874 |
| GATAGGGC | -0.0616 |
| GCGATTTA | 0.104 |
| AAAGGAAT | 0.0441 |
| CCCCCGAA | 0.312 |
| GCCGGAAA | 0.395 |
| TAGTCACA | -0.195 |

| Sequence | PBM E-score |
| --- | --- |
| CTAAGGAG | -0.293 |
| CCCGTATC | 0.09 |
| GAGCCTCA | -0.213 |
| GGTTGCAC | -0.0587 |
| CAAACGGA | 0.324 |
| ACACTGCG | -0.0754 |
| CTACCTCC | 0.224 |
| AAGGAGGG | -0.302 |
| AAAGTGCA | -0.00797 |
| ACTGCCCT | -0.0641 |
| ACCCATAC | -0.209 |
| AAAAAGGC | 0.0231 |
| TCCAGACA | -0.102 |
| GACTTGTA | -0.0573 |
| AGCCCAGG | -0.303 |
| AACTGAGT | 0.0279 |
| CCTCCTCA | -0.13 |
| AGACACGC | -0.0363 |
| AATGGTAT | -0.17 |
| GAGACGCC | 0.0301 |
| GTAACTCA | -0.065 |
| ATCAAAGC | 0.0826 |
| TAGCTACA | -0.0941 |
| TAGCGAAA | -0.228 |
| ACAGCTGT | -0.0641 |

| Sequence | PBM E-score |
| --- | --- |
| TCGGCCGA | 0.48 |
| TCACCGGA | 0.373 |
| GGAGAAAC | 0.182 |
| ACATAGAT | -0.0216 |
| CGCGGCGC | 0.193 |
| ATCGCTGA | 0.0794 |
| CAAGAGAC | -0.289 |
| CCCCACAC | -0.0638 |
| CCCCTTTC | -0.0234 |
| ATGTGATG | -0.15 |
| ACTCGGAA | 0.344 |
| TTCAGCAA | -0.343 |
| ACAACCGC | 0.172 |
| TATCGGCA | 0.425 |
| CCCCAATC | -0.0374 |
| GGGCCCAC | 0.0877 |
| ACCGCTCA | 0.0211 |
| ATTTCGAC | -0.0741 |
| AATTTGAT | -0.046 |
| CGTCGCTC | 0.0823 |
| CGGGAGTA | 0.339 |
| GCAACAGC | -0.105 |
| GTCATGAC | -0.111 |
| ACCCTAGT | -0.314 |
| CGAAACAA | 0.147 |

| Sequence | PBM E-score |
| --- | --- |
| ACCAAATG | -0.0322 |
| AAGAGCGA | 0.122 |
| GCAATCCA | -0.0428 |
| GAAACTCA | -0.096 |
| CGGATAAG | 0.31 |
| CGTGGCCC | -0.0117 |
| AATCTCGA | -0.146 |
| GGGGTGCA | 0.0557 |
| CGACTGCG | 0.0793 |
| ACCATATA | -0.14 |
| ATGCACGC | -0.0214 |
| CGTACAAC | -0.0551 |
| GTCCTGCA | -0.301 |
| ACATTTCG | 0.0432 |
| ATGGTCCG | 0.365 |
| CCCCCCGA | 0.253 |
| CAAGAAAC | 0.106 |
| ATGCGGGC | 0.0246 |
| CGGTGTTA | 0.465 |
| ACATCAGT | -0.015 |
| ATGAGTAG | 0.0588 |
| ACGTTGTC | -0.0818 |
